Source: patent US11090319B2, “Therapeutic uses of pharmaceutical compositions comprising cyclic boronic acid ester derivatives” (Melinta Subsidiary Corp., priority 2010, dated 2021)
At least one read-out could not be matched to a standard name with certainty.

Assays:
[1] = system: KP1004 KPC-2; assay: Aztreonam dose titration potentiation assay (MPC@4), class A KPCs; type: cell-based, Klebsiella pneumoniae; conditions: aztreonam at 4 μg/mL
[2] = system: KP1008 KPC-2; assay: as above; type: cell-based, Klebsiella pneumoniae; conditions: aztreonam at 4 μg/mL
[3] = system: ECL1002; assay: Tigemonam potentiation assay (MPC@4), class C and D; type: cell-based, Enterobacter cloacae; conditions: tigemonam at 4 μg/mL
Procedure: Selected β-lactamase inhibitors were also tested for their ability to potentiate the monobactam tigemonam.

Structure (SMILES)	AZT MPC4 KPC-2 KP1004 [1]	AZT MPC4 KPC-2 KP1008 [2]	MPC4 ECL1002 [3]	further results
O=C(O)C[C@@H]1CC[C@H](NC(=O)Cc2cccs2)B(O)O1 [Compound 5, 2-((3R,6S)-2-hydroxy-3-(2-(thiophen-2-yl)acetamido)-1,2-oxaborinan-6-yl)acetic acid]	X (MPC@4 of less than 5 μg/mL)	X (MPC@4 of less than 5 μg/mL)	Y (MPC@4 of 2 μg/mL to 10 μg/mL)	
O=C(O)CC1C=CC[C@H](NC(=O)Cc2cccs2)B(O)O1 (stereo partly drawn) [Compound 64, 2-((3R)-2-hydroxy-3-(2-(thiophen-2-yl)acetamido)-2,3,4,7-tetrahydro-1,2-oxaborepin-7-yl)acetic acid]	Z (MPC@4 of greater than 20 μg/mL)	X (MPC@4 of less than 5 μg/mL)	X (MPC@4 of less than 2 μg/mL)	
O=C(O)C[C@@H]1C=CC[C@H](NC(=O)Cc2cccs2)B(O)O1 [Compound 67, 2-((3R,7R)-2-hydroxy-3-(2-(thiophen-2-yl)acetamido)-2,3,4,7-tetrahydro-1,2-oxaborepin-7-yl)acetic acid]			Y (MPC@4 of 2 μg/mL to 10 μg/mL)	
O=C(O)CC1CC[C@H](NC(=O)C2CC2)B(O)O1 (stereo partly drawn) [Compound 4, 2-((3R)-3-(cyclopropanecarboxamido)-2-hydroxy-1,2-oxaborinan-6-yl)acetic acid]	X (MPC@4 of less than 5 μg/mL)	X (MPC@4 of less than 5 μg/mL)		
O=C(O)C[C@@H]1CC[C@H](NC(=O)Cc2cc(F)cc(F)c2)B(O)O1 [Compound 66, 2-((3R,6S)-3-(2-(3,5-difluorophenyl)acetamido)-2-hydroxy-1,2-oxaborinan-6-yl)acetic acid]	Y (MPC@4 of 5 μg/mL to 20 μg/mL)	X (MPC@4 of less than 5 μg/mL)		
O=C(O)C[C@@H]1CC[C@H](NC(=O)Cc2ccccc2)B(O)O1 [Compound 6, 2-((3R,6S)-2-hydroxy-3-(2-phenylacetamido)-1,2-oxaborinan-6-yl)acetic acid]	X (MPC@4 of less than 5 μg/mL)	X (MPC@4 of less than 5 μg/mL)		
O=C(O)C[C@@H]1CC[C@H](NC(=O)NCc2ccccc2)B(O)O1 [Compound 18]			Y (MPC@4 of 2 μg/mL to 10 μg/mL)	
O=C(O)C[C@@H]1CC[C@H](NC(=O)[C@@H]2CCCCN2)B(O)O1 [Compound 45, 2-((3R,6S)-2-hydroxy-3-((S)-piperidine-2-carboxamido)-1,2-oxaborinan-6-yl)acetic acid]	Z (MPC@4 of greater than 20 μg/mL)	Y (MPC@4 of 5 μg/mL to 20 μg/mL)		
O=C(O)C[C@@H]1CC[C@H](NC(=O)c2cn(C3CC3)c3cc(N4CCNCC4)c(F)cc3c2=O)B(O)O1 [Compound 58, 2-((3R,6S)-3-(1-cyclopropyl-6-fluoro-4-oxo-7-(piperazin-1-yl)-1,4-dihydroquinoline-3-carboxamido)-2-hydroxy-1,2-oxaborinan-6-yl)acetic acid]	Z (MPC@4 of greater than 20 μg/mL)	Z (MPC@4 of greater than 20 μg/mL)		
Cc1nc2ccccc2n1CCC(=O)N[C@H]1CC[C@@H](CC(=O)O)OB1O [Compound 55, 2-((3R,6S)-2-hydroxy-3-(3-(2-methyl-1H-benzo[d]imidazol-1-yl)propanamido)-1,2-oxaborinan-6-yl)acetic acid]	Y (MPC@4 of 5 μg/mL to 20 μg/mL)	X (MPC@4 of less than 5 μg/mL)		
NCCSCC(=O)N[C@H]1CC[C@@H](CC(=O)O)OB1O [Compound 48, 2-((3R,6S)-3-(2-(2-aminoethylthio)acetamido)-2-hydroxy-1,2-oxaborinan-6-yl)acetic acid]	X (MPC@4 of less than 5 μg/mL)	X (MPC@4 of less than 5 μg/mL)	Y (MPC@4 of 2 μg/mL to 10 μg/mL)	
NC1(CC(=O)N[C@H]2CC[C@@H](CC(=O)O)OB2O)CCCCC1 [Compound 51, 2-((3R,6S)-3-(2-(1-aminocyclohexyl)acetamido)-2-hydroxy-1,2-oxaborinan-6-yl)acetic acid]	X (MPC@4 of less than 5 μg/mL)	X (MPC@4 of less than 5 μg/mL)		
O=C(O)C[C@@H]1CC[C@H](NC(=O)c2ccccc2)B(O)O1 [Compound 37, 2-((3R,6S)-3-benzamido-2-hydroxy-1,2-oxaborinan-6-yl)acetic acid]	X (MPC@4 of less than 5 μg/mL)	X (MPC@4 of less than 5 μg/mL)	X (MPC@4 of less than 2 μg/mL)	
O=C(O)CC1CCC[C@H](NC(=O)Cc2cccs2)B(O)O1 (stereo partly drawn) [Compound 63, 2-((3R)-2-hydroxy-3-(2-(thiophen-2-yl)acetamido)-1,2-oxaborepan-7-yl)acetic acid]	Z (MPC@4 of greater than 20 μg/mL)	Y (MPC@4 of 5 μg/mL to 20 μg/mL)	Y (MPC@4 of 2 μg/mL to 10 μg/mL)	
C[C@]1(Cn2ccnn2)[C@H](C(=O)O)N2C(=O)C[C@H]2S1(=O)=O [Tazobactam, reference compound]				AZT MPC4 KPC-2 KP1004 ([1]; numeric values): >40 µg/mL; AZT MPC4 KPC-2 KP1008 ([2]; numeric values): >40 µg/mL; MPC4 ECL1002 ([3]; numeric values): 10 µg/mL
O=C(O)C[C@@H]1CC[C@H](NC(=O)C[C@@H]2CCCCN2)B(O)O1 [Compound 53, 2-((3R,6S)-2-hydroxy-3-(2-((S)-piperidin-2-yl)acetamido)-1,2-oxaborinan-6-yl)acetic acid]	Y (MPC@4 of 5 μg/mL to 20 μg/mL)	X (MPC@4 of less than 5 μg/mL)		
O=C(O)C[C@@H]1CC[C@H](NC(=O)Cc2ccncc2)B(O)O1 [Compound 49, 2-((3R,6S)-2-hydroxy-3-(2-(pyridin-4-yl)acetamido)-1,2-oxaborinan-6-yl)acetic acid]	X (MPC@4 of less than 5 μg/mL)	X (MPC@4 of less than 5 μg/mL)		
N[C@@H](C(=O)N[C@H]1CC[C@@H](CC(=O)O)OB1O)c1ccccc1 [Compound 9]			Y (MPC@4 of 2 μg/mL to 10 μg/mL)	
O=C(O)C[C@@H]1CC[C@H](NC(=O)C[C@H]2CCCCN2)B(O)O1 [Compound 52, 2-((3R,6S)-2-hydroxy-3-(2-((R)-piperidin-2-yl)acetamido)-1,2-oxaborinan-6-yl)acetic acid]	Y (MPC@4 of 5 μg/mL to 20 μg/mL)	X (MPC@4 of less than 5 μg/mL)		
CC(C)(O/N=C(\C(=O)N[C@H]1CC[C@@H](CC(=O)O)OB1O)c1csc(N)n1)C(=O)O [Compound 36, 2-((Z)-1-(2-aminothiazol-4-yl)-2-((3R,6S)-6-(carboxymethyl)-2-hydroxy-1,2-oxaborinan-3-ylamino)-2-oxoethylideneaminooxy)-2-methylpropanoic acid]	Z (MPC@4 of greater than 20 μg/mL)	Z (MPC@4 of greater than 20 μg/mL)		
O=C(O)C[C@H]1C=CC[C@H](NC(=O)Cc2cccs2)B(O)O1 [Compound 68, 2-((3R,7S)-2-hydroxy-3-(2-(thiophen-2-yl)acetamido)-2,3,4,7-tetrahydro-1,2-oxaborepin-7-yl)acetic acid]			Y (MPC@4 of 2 μg/mL to 10 μg/mL)	
NC(Cc1cccnc1)C(=O)N[C@H]1CC[C@@H](CC(=O)O)OB1O (stereo partly drawn) [Compound 42, 2-((3R,6S)-3-(2-amino-3-(pyridin-3-yl)propanamido)-2-hydroxy-1,2-oxaborinan-6-yl)acetic acid]	Y (MPC@4 of 5 μg/mL to 20 μg/mL)	X (MPC@4 of less than 5 μg/mL)		
